# Data from PubChem BioAssay AID2675 (National Center for Advancing Translational Sciences (NCATS), 2010).
# Hit rate of the full screen: of about 280,000 compounds, about 100 (0.036%) were called active. Inconclusive means that the source gave no clear call. Such entries were picked first, then a sample of the others. Calls follow the shape of the dose curve; as a rule, active = well fitted inhibition curve with a large enough effect in the signal ratio, with a control signal flat (not every such curve was filed as active); inconclusive = small, poorly fitted or top-dose-only effect, or effect the other way, or a change in a side signal; inactive = no such curve, though single readings can be large or run the other way; the % refers to the signal ratio. Potencies of inconclusive entries are doubtful fits and often do not repeat. “Side channel” marks fits to a control or component signal instead of the main read-out.
# Target: Muscleblind-like protein 1 (Homo sapiens) (UniProt Q9NR56)
# Assay: qHTS Assay for Inhibitors of MBNL1-poly(CUG) RNA binding
# Details: TR-FRET MBNL1-His/biotin-(CUG)12 binding, 665/545 ratio; series mostly up to 57.5 µM
# In short: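 TR-FRET readout: Ex 340 nm, 665/545 nm emission ratio, normalized to buffer-only (basal) and MBNL1-(CUG)12 controls. Complex of MBNL1-His with Biotin-(CUG)12, compounds 92 nM–58 uM, incubated 60 min at room temperature.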
# Potency is read from the fitted curve at half-maximal effect; tags tell the direction and shape of the fitted curve or compound fluorescence and quenching.
# Sequence of UniProt Q9NR56 (Q9NR56 whole entry, looked up): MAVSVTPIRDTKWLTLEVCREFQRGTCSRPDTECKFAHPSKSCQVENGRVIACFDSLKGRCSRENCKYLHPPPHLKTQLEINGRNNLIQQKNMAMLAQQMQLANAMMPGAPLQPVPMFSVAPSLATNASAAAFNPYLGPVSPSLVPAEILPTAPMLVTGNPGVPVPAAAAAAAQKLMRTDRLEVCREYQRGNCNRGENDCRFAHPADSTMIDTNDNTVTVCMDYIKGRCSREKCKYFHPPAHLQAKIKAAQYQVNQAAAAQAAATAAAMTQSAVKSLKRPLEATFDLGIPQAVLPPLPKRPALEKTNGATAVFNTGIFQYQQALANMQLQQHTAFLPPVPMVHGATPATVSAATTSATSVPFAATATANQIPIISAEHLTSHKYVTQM
row,SMILES,Potency
1,N#C/C(=N/Nc1ccccc1[N+](=O)[O-])C(N)=S,"inconclusive: 5.62 µM [quencher, side channel, full curve, poor fit]"
2,Oc1ccc(-n2nnnc2SCc2ccccc2Br)cc1,"inconclusive: 6.31 µM [fluorescent, side channel, single point]"
3,CCCCNC(=O)c1sc(=S)n(-c2ccccc2OC)c1N,"inconclusive: 14.1 µM [quencher, side channel, partial curve]"
4,O=C(Cc1cccs1)Nc1ccon1,"inconclusive: 4.47 µM [quencher, side channel, single point]"
5,Cc1c(C(=O)N/N=C/C(C)C)[nH]c2c([N+](=O)[O-])cccc12,"inconclusive: 35.5 µM [quencher, side channel, single point]"
6,CS(=O)(=O)Nc1ccc(C(=O)Nc2cccc([N+](=O)[O-])c2)cc1,"inconclusive: 17.8 µM [quencher, side channel, partial curve]"
7,COC(=O)CCCC1=CC2=CC(=O)C(C)(OC(=O)c3cccs3)C(=O)C2=CN1Cc1ccco1 (stereo not given),"inconclusive: 15.8 µM [quencher, side channel, partial curve]"
8,Cc1cccc(N2CCN(C(=S)c3ccc([N+](=O)[O-])cc3)CC2)c1,"inconclusive: 14.1 µM [quencher, side channel, partial curve]"
9,COc1ccccc1N1C(=O)CC(N2CCN(c3ccc([N+](=O)[O-])cc3)CC2)C1=O (stereo not given),"inconclusive: 12.6 µM [quencher, side channel, partial curve, poor fit]"
10,CCN1C(=O)N(c2cccc3ccccc23)C(C)=CC1(C)C,inactive
11,COC(=O)CN1C(=O)S/C(=C/c2ccc(N3CCCCC3)o2)C1=O,"inconclusive: 5.62 µM [quencher, side channel, full curve, poor fit]"
12,CCS(=O)(=O)c1ccc(O)c(NC(=O)/C=C/c2ccccc2)c1,"inconclusive: 17.8 µM [quencher, side channel, single point]"
13,O=C(CSc1ccc(-c2ccco2)nn1)NCc1ccc(Cl)cc1,"inconclusive: 0.1 µM [fluorescent, side channel, full curve, poor fit]"
14,N#CC1=C(N)OC2=C(CCC/C2=C/c2ccoc2)C1c1ccoc1 (stereo not given),"inconclusive: 39.8 µM [quencher, side channel, single point]"
15,Cc1nnc(SCC(=O)N2CCCCC2)s1,"inconclusive: 39.8 µM [quencher, side channel, single point]"
